Reference: the supplement of paper PMC4604168 (melanoma cell lines)
The list shows a part of the results. Many values rest on one well or one pass, so single values are uncertain.
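Further: cells treated in 1,536-well plates, then fixed and DAPI-stained, with nuclei counted from automated high-throughput microscope images.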

What follows are compounds tested on A101D (assay: cell count relative to DMSO control; melanoma cells; higher = more viable cells). Settings: library dose: standard library concentration; 72 h.
Work on `Cc1ccc(NC(=O)c2cccc(N(C)C)c2)cc1NC(=O)c1ccc(O)cc1` + Cn1cncc1[C@@](N)(c1ccc(Cl)cc1)c1ccc2c(c1)c(-c1cccc(Cl)c1)cc(=O)n2C [tipifarnib] (first compound 10 µM, partner dose 0.05 µM) yielded a cell count of 79.7%. Work on `NC(=O)c1ccc(N(C(N)=O)c2c(F)cccc2F)nc1-c1ccc(F)cc1F` + COCC[n+]1c2c(n(Cc3cnccn3)c1C)C(=O)c1ccccc1C2=O [YM155] (first compound 2 µM, partner dose 0.002 µM) yielded a cell count of 61%. `CCCCCCCCc1ccc(CCC(N)(CO)CO)cc1` [fingolimod] + CNC(=O)c1cc(Oc2ccc(NC(=O)Nc3ccc(Cl)c(C(F)(F)F)c3)cc2)ccn1 [sorafenib] (first compound 10 µM, partner dose 2 µM) gave a cell count of 3.23%. With `CC(C)(C)c1cnc(CSc2cnc(NC(=O)C3CCNCC3)s2)o1` + OCCn1cc(-c2cnc3nnn(Cc4ccc5ncccc5c4)c3n2)cn1 [PF04217903] (first compound 0.05 µM, partner dose 5 µM) the cell count was 77%. Compound `NC(=O)c1ccc(N(C(N)=O)c2c(F)cccc2F)nc1-c1ccc(F)cc1F` + NC1(c2ccc(-c3nc4ccn5c(=O)[nH]nc5c4cc3-c3ccccc3)cc2)CCC1 [MK2206] (first compound 2 µM, partner dose 2 µM) has a cell count of 85.7%. Work on `CCCCCCCCc1ccc(CCC(N)(CO)CO)cc1` [fingolimod] + COc1ccc(COc2ccc(Cc3cnc(N)nc3N)cc2OC)cc1 [GW2580] (first compound 10 µM, partner dose 5 µM) yielded a cell count of 6.22%. For `NC(=O)c1ccc(N(C(N)=O)c2c(F)cccc2F)nc1-c1ccc(F)cc1F` + Clc1ccc(Nc2nnc(Cc3ccncc3)c3ccccc23)cc1 [vatalanib] (first compound 2 µM, partner dose 10 µM), the cell count was 91.3%. In the case of `NC(=O)c1ccc(N(C(N)=O)c2c(F)cccc2F)nc1-c1ccc(F)cc1F` + CN1CCN(c2ccc3nc(-c4c(N)c5c(F)cccc5[nH]c4=O)[nH]c3c2)CC1 [Dovitinib] (first compound 2 µM, partner dose 0.5 µM), the cell count is reported as 64.2%. For `NC(=O)c1ccc(N(C(N)=O)c2c(F)cccc2F)nc1-c1ccc(F)cc1F` + O=C(O)[C@@H]1[O][Sb](=[O])([O][Sb]2(=[O])[O][C@H]([C@H](O)CO)[C@H](O)[C@H](C(=O)O)[O]2)[O][C@H]([C@H](O)CO)[C@@H]1O [stibogluconate] (first compound 2 µM, partner dose 10 µM), the cell count was 104%. Work on `CC(C)(C)c1cnc(CSc2cnc(NC(=O)C3CCNCC3)s2)o1` + O=S(=O)(c1ccccc1)N(CC(F)(F)F)c1ccc(C(O)(C(F)(F)F)C(F)(F)F)cc1 [T0901317] (first compound 0.05 µM, partner dose 7 µM) yielded a cell count of 66.9%. `CCCCCCCCc1ccc(CCC(N)(CO)CO)cc1` [fingolimod] + CC(=O)O[C@@]12CO[C@@H]1C[C@H](O)[C@@]1(C)C(=O)[C@H](O)C3=C(C)[C@@H](OC(=O)[C@H](O)[C@@H](NC(=O)OC(C)(C)C)c4ccccc4)C[C@@](O)([C@@H](OC(=O)c4ccccc4)[C@H]21)C3(C)C [Docetaxel] (first compound 10 µM, partner dose 0.0005 µM) gave a cell count of 13.4%. In the case of `CC(C)(C)c1cnc(CSc2cnc(NC(=O)C3CCNCC3)s2)o1` + C[C@@H]1CCN(C(=O)CC#N)C[C@@H]1N(C)c1ncnc2[nH]ccc12 [CP690550] (first compound 0.05 µM, partner dose 5 µM), the cell count is reported as 73.6%. In the case of `NC(=O)c1ccc(N(C(N)=O)c2c(F)cccc2F)nc1-c1ccc(F)cc1F` + C#Cc1cccc(Nc2ncnc3cc(OCCOC)c(OCCOC)cc23)c1 [erlotinib] (first compound 2 µM, partner dose 4 µM), the cell count is reported as 72.9%. Work on `NC(=O)c1ccc(N(C(N)=O)c2c(F)cccc2F)nc1-c1ccc(F)cc1F` + Cc1ccc(NC(=O)c2cccc(N(C)C)c2)cc1NC(=O)c1ccc(O)cc1 [ZM336372] (first compound 2 µM, partner dose 10 µM) yielded a cell count of 82.5%. Compound `CCCCCCCCc1ccc(CCC(N)(CO)CO)cc1` [fingolimod] + Nc1cccc2c1CN(C1CCC(=O)NC1=O)C2=O [lenalidomide] (first compound 10 µM, partner dose 5 µM) has a cell count of 8.62%. `CCCCCCCCc1ccc(CCC(N)(CO)CO)cc1` [fingolimod] + O=C(O)c1ccc2c(c1)nc(Nc1cccc(Cl)c1)c1ccncc12 [CX4945] (first compound 10 µM, partner dose 2 µM) gave a cell count of 6.8%. `CCCCCCCCc1ccc(CCC(N)(CO)CO)cc1` [fingolimod] + CS(=O)(=O)CCNCc1ccc(-c2ccc3ncnc(Nc4ccc(OCc5cccc(F)c5)c(Cl)c4)c3c2)o1 [lapatinib] (first compound 10 µM, partner dose 4 µM) showed a cell count of 6.13%. `Cc1ccc(NC(=O)c2cccc(N(C)C)c2)cc1NC(=O)c1ccc(O)cc1` + O=C(Nc1cccc(Cl)c1)Nc1ncc(CCNc2ncnc3ccsc23)s1 [SNS314] (first compound 10 µM, partner dose 0.004 µM) gave a cell count of 68.4%. Work on `Cc1ccc(NC(=O)c2cccc(N(C)C)c2)cc1NC(=O)c1ccc(O)cc1` + CC(C)(C)c1cnc(CSc2cnc(NC(=O)C3CCNCC3)s2)o1 [SNS-032] (first compound 10 µM, partner dose 0.05 µM) yielded a cell count of 82.4%. `CCCCCCCCc1ccc(CCC(N)(CO)CO)cc1` [fingolimod] + CC1(C)NC(=O)N(c2ccc([N+](=O)[O-])c(C(F)(F)F)c2)C1=O [nilutamide] (first compound 10 µM, partner dose 5 µM) was tested, and the cell count was 4.69%. Compound `NC(=O)c1ccc(N(C(N)=O)c2c(F)cccc2F)nc1-c1ccc(F)cc1F` + NC(=O)Nc1cc(-c2cccc(F)c2)sc1C(=O)N[C@H]1CCCNC1 [AZD7762] (first compound 2 µM, partner dose 0.1 µM) has a cell count of 59.9%. For `NC(=O)c1ccc(N(C(N)=O)c2c(F)cccc2F)nc1-c1ccc(F)cc1F` + CS(=O)(=O)CCNCc1ccc(-c2ccc3ncnc(Nc4ccc(OCc5cccc(F)c5)c(Cl)c4)c3c2)o1 [lapatinib] (first compound 2 µM, partner dose 4 µM), the cell count was 94.9%. Work on `Cc1ccc(NC(=O)c2cccc(N(C)C)c2)cc1NC(=O)c1ccc(O)cc1` + Oc1nc(-c2ccc(C(F)(F)F)cc2)nc2c1CSCC2 [XAV939] (first compound 10 µM, partner dose 10 µM) yielded a cell count of 99.4%. With `CCCCCCCCc1ccc(CCC(N)(CO)CO)cc1` [fingolimod] + Nc1ccn([C@@H]2O[C@H](CO)[C@@H](O)C2(F)F)c(=O)n1 [gemcitabine] (first compound 10 µM, partner dose 0.002 µM) the cell count was 10.7%. Compound `CCCCCCCCc1ccc(CCC(N)(CO)CO)cc1` [fingolimod] + Cc1nc(Nc2ncc(C(=O)Nc3c(C)cccc3Cl)s2)cc(N2CCN(CCO)CC2)n1 [dasatanib] (first compound 10 µM, partner dose 0.02 µM) has a cell count of 7.87%. `COc1cc2c(Oc3ccc4[nH]c(C)cc4c3F)ncnc2cc1OCCCN1CCCC1` [cediranib] + c1cc(-c2cnn3cc(-c4ccc(OCCN5CCCCC5)cc4)cnc23)ccn1 [Dorsomorphin] (first compound 2 µM, partner dose 2 µM) was tested, and the cell count was 81%. `CCCCCCCCc1ccc(CCC(N)(CO)CO)cc1` [fingolimod] + O=c1cc(-c2cccc3c2Sc2ccccc2S3)oc(N2CCOCC2)c1 [KU55933] (first compound 10 µM, partner dose 5 µM) was tested, and the cell count was 3.12%. Work on `CCCCCCCCc1ccc(CCC(N)(CO)CO)cc1` [fingolimod] + C[C@@H](Oc1cc(-c2cnn(C3CCNCC3)c2)cnc1N)c1c(Cl)ccc(F)c1Cl [Crizotinib] (first compound 10 µM, partner dose 1 µM) yielded a cell count of 5.04%. With `NC(=O)c1ccc(N(C(N)=O)c2c(F)cccc2F)nc1-c1ccc(F)cc1F` + CN(NC(=O)CC(=O)NN(C)C(=S)c1ccccc1)C(=S)c1ccccc1 [STA4783] (first compound 2 µM, partner dose 0.03 µM) the cell count was 21.7%. For `NC(=O)c1ccc(N(C(N)=O)c2c(F)cccc2F)nc1-c1ccc(F)cc1F` + Cn1nnc2c(C(N)=O)ncn2c1=O [temozolomide] (first compound 2 µM, partner dose 10 µM), the cell count was 84.7%. `CCCCCCCCc1ccc(CCC(N)(CO)CO)cc1` [fingolimod] + COc1cc(Nc2ncc(F)c(Nc3ccc4c(n3)NC(=O)C(C)(C)O4)n2)cc(OC)c1OC [Tamatinib] (first compound 10 µM, partner dose 2 µM) showed a cell count of 2.12%. For `CCCCCCCCc1ccc(CCC(N)(CO)CO)cc1` [fingolimod] + COc1cc2c(Oc3ccc4[nH]c(C)cc4c3F)ncnc2cc1OCCCN1CCCC1 [cediranib] (first compound 10 µM, partner dose 2 µM), the cell count was 1.33%. `NC(=O)c1ccc(N(C(N)=O)c2c(F)cccc2F)nc1-c1ccc(F)cc1F` + O=C(Nc1cccc(Cl)c1)Nc1ncc(CCNc2ncnc3ccsc23)s1 [SNS314] (first compound 2 µM, partner dose 0.004 µM) was tested, and the cell count was 91.5%. `CCCCCCCCc1ccc(CCC(N)(CO)CO)cc1` [fingolimod] + O=C(CCCCCCC(=O)Nc1ccccc1)NO [vorinostat] (first compound 10 µM, partner dose 0.4 µM) gave a cell count of 5.02%.
